15 molecules from patent US20170029494A1 (GlaxoSmithKline, published 2017) can be followed below.

Test [1] deals with T1, human VEGF165 (human, UniProt P15692 27-191).
T1 construct: mature; Two sources were used (GSK in-house HEK293); also called hVEGF165; rhVEGF165
T1 sequence (looked up): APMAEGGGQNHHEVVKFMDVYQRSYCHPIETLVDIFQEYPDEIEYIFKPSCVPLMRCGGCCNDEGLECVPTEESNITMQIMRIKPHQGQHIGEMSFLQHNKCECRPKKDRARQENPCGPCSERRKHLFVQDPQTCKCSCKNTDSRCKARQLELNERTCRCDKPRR
Kind of test: SPR Biacore T100, Protein A capture, VEGF165 analyte, 37 C, 1:1 model. On the technique in general: In SPR one partner is held on a chip, and binding of the other changes the refractive index at the surface.

Test [2] deals with T1, human VEGF165. The test can be described thus: SPR Biacore T100, Protein A capture, VEGF165 analyte, 37 C, 1:1 model (row printed a second time).
Test [3] concerns the target T1, human VEGF165. Kind of test: SPR Biacore T100, Protein A capture, VEGF165 analyte, 37 C, 1:1 model (biphasic curves).
The target of test [4] is T1, human VEGF165. Kind of test: SPR Biacore T100, Protein A capture, VEGF165 analyte, 37 C, 1:1 model. This is another data set of the same source.
In test [5] the target is T1, human VEGF165. The test can be described thus: ITC, VEGF165 titrated into construct, 25 C, 1:1 model.
Test [6] addresses T1, human VEGF165. Kind of test: SPR Biacore T100, Protein A capture, VEGF165 analyte, 37 C, 1:1 model. This is another data set of the same source.
Test [7] deals with T1, human VEGF165. The test can be described thus: MSD RBA, VEGF binding to coated VEGFR2 (second set).
For test [8], the target named is T1, human VEGF165. Kind of test: SPR Biacore T100, Protein A capture, VEGF165 analyte, 37 C, 1:1 model. This is another data set of the same source.
Test [9] addresses T1, human VEGF165. Kind of test: SPR Biacore T100, Protein A capture, VEGF165 analyte, 37 C, 1:1 model (fit not ideal).
Test [10] deals with T1, human VEGF165. The test can be described thus: MSD RBA, VEGF binding to coated VEGFR1, no pre-incubation.
The target of test [11] is T1, human VEGF165. Kind of test: MSD RBA, VEGF binding to coated VEGFR2, no pre-incubation.
Test [12] has as its target T1, human VEGF165. The test can be described thus: SPR Biacore T100, Protein A capture, VEGF165 analyte, 37 C, 1:1 model. The source holds these as a separate data set.

Where “and” joins values, the source holds several entries; their conditions need not be identical. Identical values can stand only once.

B1: C085 alb d 1 (C-terminal Fc fusion of K-044-085 dAb (Albumin Domain 1)) (Fc fusion)
chain: [human IgG1 Fc not shown]HKDDNPNLPRLVRPEVDVMDIQMTQSPSSLSASVGDRVTITCRASQWIGPELKWYQQKPGKAPKLLIYHGSILQSGVPSRFSGSGSGTDFTLTISSLQPEDFATYYCQQYMYYPHTFGQGTKVEIKR
notes: Vk Fc-dAb; dimer; also called C085 Alb DOM1
A word on the Kd: it is the free concentration of one partner at which half of the binding sites on the other are occupied at equilibrium, for simple one-to-one binding. A lower Kd goes with tighter binding. As usually defined, the koff is a measure of how fast the partners let go of each other. A higher koff goes with a short-lived complex. By kon is commonly meant a measure of how fast the partners come together. The low end stands for slower complex formation, the high end for faster complex formation. For B1, in the test with human VEGF165 [1], binding was characterised by a dissociation constant (Kd) of 27 pM, the off-rate (koff) was 0.000112 s⁻¹ and the kon amounted to 4.15e+06 M⁻¹ s⁻¹. Besides, in the test with human VEGF165 [2], the Kd amounted to 27 pM, the koff turned out to be 0.000112 s⁻¹ and the kon is 4.15e+06 M⁻¹ s⁻¹.

B2: C085 alb d 3-TFHAD (C-terminal Fc fusion of K-044-085 dAb (Albumin Domain 3-TFHAD)) (Fc fusion)
chain: [human IgG1 Fc not shown]EVDETYVPKEFNAETFDIQMTQSPSSLSASVGDRVTITCRASQWIGPELKWYQQKPGKAPKLLIYHGSILQSGVPSRFSGSGSGTDFTLTISSLQPEDFATYYCQQYMYYPHTFGQGTKVEIKR
notes: not certain; also called C085 Alb DOM3
Turning to B2, in the test with human VEGF165 [1], binding was characterised by a dissociation constant (Kd) of 13.2 pM, the dissociation rate constant (koff) stood at 8.12e-05 s⁻¹ and the on-rate (kon) came to 6.17e+06 M⁻¹ s⁻¹.

B3: DMS30028 (N-terminal Fc fusion of K-044-085 dAb (IgG1 Hinge)) (Fc fusion)
chain: DIQMTQSPSSLSASVGDRVTITCRASQWIGPELKWYQQKPGKAPKLLIYHGSILQSGVPSRFSGSGSGTDFTLTISSLQPEDFATYYCQQYMYYPHTFGQGTKVEIKRV[human IgG1 Fc with changes not shown]
notes: dimer; also called N085 extg1; DMS30028ITC
In the test with human VEGF165 [3], B3 registered an equilibrium dissociation constant (Kd) of 6.43 pM, a koff of 6.6e-05 s⁻¹ and a kon of 1.03e+07 M⁻¹ s⁻¹. In addition, in the test with human VEGF165 [4], the equilibrium dissociation constant (Kd) worked out at 10.3 pM, the off-rate (koff) stood at 0.000107 s⁻¹ and the kon is 1.04e+07 M⁻¹ s⁻¹. Also, in the test with human VEGF165 [5], the Ka is 1.45e+07 M⁻¹, the “N (VEGF165 (monomer)/antibody)” value amounted to 1.3, the ΔH is -17.3 kcal/mol and the ΔS is -25.4 cal/mol/deg.

B4: DMS30001 (C-terminal Fc fusion of K-044-232 dAb, GS(TVAAPSGS)x3 Linker, Fc-dAb) (Fc fusion)
chain: [human IgG1 Fc and a few adjoining residues not shown]GSTVAAPSGSTVAAPSGSTVAAPSGSDIQMTQSPSSLSASVGDRVTITCRASQWIGPELSWYQQKPGKAPKLLIYHGSILQSGVPSRFSGSGSGTDFTLTISSLQPEDFATYYCQQYMYYPETFGQGTKVEIKR
notes: Vk Fc-dAb; dimer
Turning to B4, the Kd with human VEGF165 [6] came out at 2 pM.

B5: DMS30002 (C-terminal Fc fusion of K-044-236 dAb, GS(TVAAPSGS)x3 Linker, Fc-dAb) (Fc fusion)
chain: [human IgG1 Fc and a few adjoining residues not shown]GSTVAAPSGSTVAAPSGSTVAAPSGSDIQMTQSPSSLSASVGDRVTITCRASQWIGPELSWYQQKPGKAPKLLIYHGSILQSGVPSRFSGSGSGTDFTLTISSLQPEDFATYYCQQYMYYPKTFGQGTKVEIKR
notes: Vk Fc-dAb; dimer
For the molecule B5, the affinity with human VEGF165 [6], expressed as Kd, was 3 pM.

B6: DMS30025 (DT02-K-044-085-AS-Fc (T113P)-GS(TVAAPSGS)x3 Linker-DT02-K-044-085 dAb-Fc-dAb) (Fc fusion)
chain: DIQMTQSPSSLSASVGDRVTITCRASQWIGPELKWYQQKPGKAPKLLIYHGSILQSGVPSRFSGSGSGTDFTLTISSLQPEDFATYYCQQYMYYPHTFGQGTKVEIKRAS[human IgG1 Fc with T225P (EU numbers) not shown]GSTVAAPSGSTVAAPSGSTVAAPSGSDIQMTQSPSSLSASVGDRVTITCRASQWIGPELKWYQQKPGKAPKLLIYHGSILQSGVPSRFSGSGSGTDFTLTISSLQPEDFATYYCQQYMYYPHTFGQGTKVEIKR
notes: Vk-Vk dAb-Fc-dAb; dimer; also called DMS300025
As usually defined, the EC50 is the midpoint of the concentration-response curve. Low readings indicate greater potency, high ones weaker potency. Turning to B6, in the test with human VEGF165 [7], the EC50 was 0.00486 µg/mL and 0.049 nM; the “Max. % Inhibition” value came out at 82.4%.

B7: DMS30029 (N-terminal Fc fusion of K-044-085 dAb (ASTHP linker)) (Fc fusion)
chain: DIQMTQSPSSLSASVGDRVTITCRASQWIGPELKWYQQKPGKAPKLLIYHGSILQSGVPSRFSGSGSGTDFTLTISSLQPEDFATYYCQQYMYYPHTFGQGTKVEIKRAS[human IgG1 Fc with T225P (EU numbers) not shown]
notes: dimer; also called N085 T2P; N085 T113P
In the test with human VEGF165 [3], B7 gave a Kd of 8.06 pM, a koff of 7.57e-05 s⁻¹ and a kon of 9.4e+06 M⁻¹ s⁻¹.

B8: C085 G4Sx4 (C-terminal Fc fusion of K-044-085 dAb ((Gly4Ser)x4)) (Fc fusion)
chain: [human IgG1 Fc not shown]GGGGSGGGGSGGGGSGGGGSDIQMTQSPSSLSASVGDRVTITCRASQWIGPELKWYQQKPGKAPKLLIYHGSILQSGVPSRFSGSGSGTDFTLTISSLQPEDFATYYCQQYMYYPHTFGQGTKVEIKR
notes: Vk Fc-dAb; dimer
In the test with human VEGF165 [1], B8 registered a Kd of 23.1 pM, a koff of 0.000141 s⁻¹ and a kon of 6.11e+06 M⁻¹ s⁻¹.

B9: DMS30027 (C-terminal Fc fusion of K-044-085 dAb (Helical Linker)) (Fc fusion)
chain: [human IgG1 Fc not shown]KEAAAKEAAAKEAAAKELAAKEAAAKEAAAKEAAAKELAADIQMTQSPSSLSASVGDRVTITCRASQWIGPELKWYQQKPGKAPKLLIYHGSILQSGVPSRFSGSGSGTDFTLTISSLQPEDFATYYCQQYMYYPHTFGQGTKVEIKR
notes: dimer; also called C085 Helical
Regarding B9, in the test with human VEGF165 [8], the Kd came to 6.21 pM, the koff was found to be 6.23e-05 s⁻¹ and the kon came to 1e+07 M⁻¹ s⁻¹.

B10: N085 fib x4 (N-terminal Fc fusion of K-044-085 dAb ((TGLDSP)x4)) (Fc fusion)
chain: DIQMTQSPSSLSASVGDRVTITCRASQWIGPELKWYQQKPGKAPKLLIYHGSILQSGVPSRFSGSGSGTDFTLTISSLQPEDFATYYCQQYMYYPHTFGQGTKVEIKRTGLDSPTGLDSPTGLDSPTGLD[human IgG1 Fc and a few adjoining residues not shown]
notes: Vk dAb-Fc; dimer; also called N085 Fibrx4; N085 Fibronectin 4
In the case of B10, in the test with human VEGF165 [9], binding was characterised by a dissociation constant (Kd) of 7.15 pM, the koff is 4.83e-05 s⁻¹ and the kon is 6.76e+06 M⁻¹ s⁻¹.

B11: DMS30005 (N-terminal Fc fusion of K-044-251 dAb, AAAS Linker, dAb-Fc) (Fc fusion)
chain: ESTDIQMTQSPSSLSASVGDRVTITCRASQWIGPELKWYQQKPGKAPKLLIYHGSILQSGVPSRFSGSGSGTDFTLTISSLQPEDFATYYCQQYMYYPETFGQGTKVEIKRAA[human IgG1 Fc and a few adjoining residues not shown]
notes: Vk dAb-Fc; dimer
As for B11, in the test with human VEGF165 [10], the EC50 was 0.207 µg/mL and 2.76 nM; the “Max. % Inhibition” value turned out to be 82.2%. Also, in the test with human VEGF165 [11], the EC50 is 0.0955 µg/mL and 1.27 nM; the “Max. % Inhibition” value amounted to 85.8%.

B12: DMS30011 (DT02-K-044-251-AS Linker-Fc-Albumin Domain 3 Linker-DT02-K-044-251 Vk-Vk dAb-Fc-dAb) (Fc fusion)
chain: DIQMTQSPSSLSASVGDRVTITCRASQWIGPELKWYQQKPGKAPKLLIYHGSILQSGVPSRFSGSGSGTDFTLTISSLQPEDFATYYCQQYMYYPETFGQGTKVEIKR[human IgG1 Fc and a few adjoining residues not shown]EVDETYVPKEFNAETFTFHADDIQMTQSPSSLSASVGDRVTITCRASQWIGPELKWYQQKPGKAPKLLIYHGSILQSGVPSRFSGSGSGTDFTLTISSLQPEDFATYYCQQYMYYPETFGQGTKVEIKR
B12 registered a Kd with human VEGF165 [12] of 4.6 pM.

B13: C085 G4Sx3 (C-terminal Fc fusion of K-044-085 dAb ((Gly4Ser)x3)) (Fc fusion)
chain: [human IgG1 Fc not shown]GGGGSGGGGSGGGGSDIQMTQSPSSLSASVGDRVTITCRASQWIGPELKWYQQKPGKAPKLLIYHGSILQSGVPSRFSGSGSGTDFTLTISSLQPEDFATYYCQQYMYYPHTFGQGTKVEIKR
notes: Vk Fc-dAb; dimer
In the test with human VEGF165 [1], B13 had a Kd of 29.1 pM, a koff of 0.00018 s⁻¹ and an on-rate (kon) of 6.19e+06 M⁻¹ s⁻¹.

B14: DMS30010 (DT02-K-044-085-AAAS Linker-Fc-Albumin Domain 3 Linker-DT02-K-044-085 Vk-Vk dAb-Fc-dAb) (Fc fusion)
chain: DIQMTQSPSSLSASVGDRVTITCRASQWIGPELKWYQQKPGKAPKLLIYHGSILQSGVPSRFSGSGSGTDFTLTISSLQPEDFATYYCQQYMYYPHTFGQGTKVEIKRAA[human IgG1 Fc and a few adjoining residues not shown]EVDETYVPKEFNAETFTFHADDIQMTQSPSSLSASVGDRVTITCRASQWIGPELKWYQQKPGKAPKLLIYHGSILQSGVPSRFSGSGSGTDFTLTISSLQPEDFATYYCQQYMYYPHTFGQGTKVEIKR
Regarding B14, the affinity with human VEGF165 [12], expressed as Kd, was 3.1 pM.

B15: DMS30012 (DT02-K-044-251-AAAS Linker-Fc-Albumin Domain 3 Linker-DT02-K-044-251 Vk-Vk dAb-Fc-dAb) (Fc fusion)
chain: DIQMTQSPSSLSASVGDRVTITCRASQWIGPELKWYQQKPGKAPKLLIYHGSILQSGVPSRFSGSGSGTDFTLTISSLQPEDFATYYCQQYMYYPETFGQGTKVEIKRAA[human IgG1 Fc and a few adjoining residues not shown]EVDETYVPKEFNAETFTFHADDIQMTQSPSSLSASVGDRVTITCRASQWIGPELKWYQQKPGKAPKLLIYHGSILQSGVPSRFSGSGSGTDFTLTISSLQPEDFATYYCQQYMYYPETFGQGTKVEIKR
In turn, B15 came in with a Kd in the test with human VEGF165 [12] of 4.6 pM.
